Assay: soluble on expression in E. coli; label from the status in PepcDB or PDB records

Sequence: MSKVNKAPLSLSRLVRYMDGKDGKIAVIVGTVTDDVRIEDVPALTVTALRFTESARARIHKAGGECLTFDQLALPCPTWSENTVLLRGPKNTREAVKHFGPAPGVPHSHTKPYVRQTGKKIEIARGRRRSRGFKV
- soluble on expression in E. coli: soluble
